We go through 44 sequences from the supplement of paper PMC11417369.

The other results are listed elsewhere or left out.

This experiment deals with PfHDP1 homeodomain (GST-tagged). As to the kind of experiment: gcPBM binding intensity (ln(normalized median fluorescence intensity)); higher = stronger DNA binding. The procedure, abridged: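 An Agilent 4 × 180k array carrying primer-extended double-stranded 36-bp intergenic genomic probes and negative controls received GST-tagged P. falciparum DNA-binding domains expressed in E. coli, about 25 μg on average, for 1 h. The binding buffer contained 1× PBS, 1% milk, 0.2 mg/ml BSA, 0.5% salmon testes DNA and 0.03% Triton X-100. Binding intensity is the top Masliner-normalised natural-log median intensity across replicate spots of either probe orientation, read after Alexa488 anti-GST antibody staining and a 488 nm scan.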
As to TTAATTAATTTTTCAGTGCAAATAAAAAATATTTAA, the “gcPBM binding intensity (ln)” value came to 9.6.
The result for “CAAAAGTAAGCACGCACACACAACATGAAATAAACT [CACACA_site6223]” reads 7.18.
The value for “AAAAATTTTAATTAGGAACACACATATATATATATA [CACACA_site9016]” was 9.03; that for “AACGTTCATAATTATTGTACCCTCATTTTATTTTTT [XGTACX_site503]” was 6.93.
For “ATAACTTTTTAAAAGACACACATAAGAAAAACAAAA [CACACA_site723]”, the “gcPBM binding intensity (ln)” value was 7.17.
The result for “ATAAAACGAAGATGTTGTACGTACAAATAAATGAAT [XGTACX_site2472]” reads 7.45; that for “TTTAATTATAAAACGTGTACATAATTATAATTACAT [XGTACX_site2206]”, 6.47.
With “AAAAAATGGATGATCACACACTTCATAAAAATTGCA [CACACA_site5256]”, the “gcPBM binding intensity (ln)” value is 6.18.
As to “AAAAAAAAAAAAAAATGTACCCATATATAAATATAT [XGTACX_site4061]”, the “gcPBM binding intensity (ln)” value is 6.11.
For “AAAAATAGTATAAGTAGTACAACTGAAAAGTTATGT [XGTACX_site7488]”, the “gcPBM binding intensity (ln)” value came out at 6.6.
The value for “ATTATGTACAAAATGGTGCAATATTATACATATATA [GTGCAC_site9468]” was 10.4; that for “ATCATTTGCTCACGCACACACACATAAAAAGAAAAA [CACACA_site4349]” was 9.55.
Turning to “TATATTAATATGAAAAGTACACATTCTATATATATA [XGTACX_site929]”, the “gcPBM binding intensity (ln)” value turned out to be 7.34.
The result for “ACATAATTTGATAATACACACAAATAATCTAAAATT [CACACA_site129]” reads 6.38; that for “AAAATAATCACATATTGTACAAAAAAATTTATTAAA [XGTACX_site3239]”, 6.64.
The result for “TTTTGAAGTAACAAATAAATAAATAAATATATAAAA [GTGCAC_negctrl_site517]” reads 6.53; that for “ATTCATTCATATGTTACACACACACCGACACATAAA [CACACA_site5749]”, 7.31.
On to “TATTAAACTGGACACACACACACACCCATATATAAA [CACACA_site4579]”, for which the “gcPBM binding intensity (ln)” value was determined as 6.93.
The value for “GACTTTTCAATTTTTCGTACGTATAAATTGTATACA [XGTACX_site1488]” was 6.47; that for “TTTTGTTACTTTTATGTGCACTTATAAAACGAACTA [GTGCAC_site9551]” was 9.96; that for “CTAATATATATCAATTGTACATATTGAATAAGAACA [XGTACX_site4541]” was 6.6.
The result for “TTTTTATTGTTGTACTTATATTATTTTATTATTAAA [GTGCAC_negctrl_site200]” reads 6.77; that for “AAGAAAAAATGATGAATAGAGATCAAATCTATATAT [TGCATGCA_negctrl_site29]”, 6.23; that for “AAATTATGTGCCAATACACACACACCGATATATATA [CACACA_site8050]”, 6.83.
The value for “TAGTTTTTATATAGCACACATATTGTGATTATGTAT [CACACA_site1196]” was 6.83; that for “TTTATATATAAATATATATATATATATATATATATA [TGCATGCA_negctrl_site121]” was 9.28; that for “ATAATATAGAAACACACACACATATATATATACATT [CACACA_site555]” was 6.74.
On to “TACTACCACGGACATGCATGCACATTATTACTCTAA [TGCATGCA_site313]”, for which the “gcPBM binding intensity (ln)” value is 8.28.
In the case of “AATTCATTTTACCCATGTACACAATTATATTTTATA [XGTACX_site4127]”, the “gcPBM binding intensity (ln)” value was found to be 6.79.
Regarding “TTCTTAGATTGTACAGTACACACCTTTAGAATGTTA [CACACA_site212]”, the “gcPBM binding intensity (ln)” value was 6.73.
The value for “TTTATTATCTTATTCACACACATATATAAATATGTA [CACACA_site7369]” was 6.77; that for “AAAAAAAAAACATACACACACACAAATATTTATATA [CACACA_site437]” was 6.83; that for “AACATAATAAAAAAACGTACATAATTTTATATACAT [XGTACX_site6602]” was 6.37.
In the case of “ATATATCCAATATATATATATATATATATATATATA [CACACA_negctrl_site160]”, the “gcPBM binding intensity (ln)” value stood at 9.45.
The value for “ACATTCATAAAAAAAAGTACATTTTTTATAAAAGAA [XGTACX_site6197]” was 6.47; that for “TTGTTAAATATTTATAAAATGAATTTAAAATGTACT [CACACA_negctrl_site665]” was 6.13; that for “TATATTTAGAATACAATCTTAAAGTTGAAATAAAAT [CACACA_negctrl_site1292]” was 6.03.
For the sequence “ATAGTTTTACACATTTGTACATAATTTACAACAAAA [XGTACX_site25]”, the “gcPBM binding intensity (ln)” value is 7.04.
The result for “TTTCCGTATAATTTTGCACACGAATATAAATTTGAT [CACACA_site137]” reads 10.3; that for “ATAGTATCTGGTAGCTGTACGAGTCGTATAGTGCAG [XGTACX_site2542]”, 6.7.
“AAAAAATATTATATATGTACATAATATTTTTTTTTT [XGTACX_site5909]”: the “gcPBM binding intensity (ln)” value is 6.16.
As to “TTTAATCAAATTAAAAGTACAGAATTGTTCATGTAG [XGTACX_site1229]”, the “gcPBM binding intensity (ln)” value came out at 5.92.
The value for “ATATATATATATTCCACACACACACTAATAAAAAAA [CACACA_site9214]” was 8.59.
The result for “TGTTTTTGTGATCATATGAAAAAATTACCTACAAGG [CACACA_negctrl_site279]” reads 6.42.
